# Results: article PMC6451091
# The other results are listed elsewhere or left out. For some assays here: At the low end of the ranking, values are background and their order means little. For some assays here: The protein was read in a cell extract, so binding may be indirect.
# Target: PU.1 (IVT) (UniProt P17947)
# Experiment: protein-binding microarray (PBM)
# Details: 20 mM HEPES pH 7.9, 100 mM NaCl, 1 mM DTT, 0.2 mg/mL BSA, 0.02% Triton X-100, 2% milk, 0.4 mg/mL salmon testes DNA; 1 h; temperature not stated; high values mean tight binding; double strand, one strand shown; sequences stand for … in GCCTAGCAC…GTGCTAGGTCTTGATTCGCTTGACGCTGCTG
row,Sequence,binding signal
1,TTTTTGAGGAAGTGATAAAA,6.89 z-score
2,AGAAAGGGGAAGTGCTACAC,7.72 z-score
3,GAAAACGGGAAGTCCCATAG,6.77 z-score
4,TGATAGAGGAAGTAGTAGCT,5.87 z-score
5,AAAAGAGGGAAGTGAAAATT,5.83 z-score
6,GAAATGAGGAAGTCTAACCT,7.55 z-score
7,GAAAACAGGAAGTCCCATCG,7.4 z-score
8,GGAGACAGGAAGTGACTTGT,3.62 z-score
9,AAAGTAAGGAAGTGATAAAG,2.7 z-score
10,GGAAGGCAGAAGTACTGTGA,1.51 z-score
11,GCAGGGAGGAAGTGGGGAAG,3.42 z-score
12,GAAGAGAGGAAGTCAAATTG,4.29 z-score
13,AAAAACAGGAACTGTCTTTC,6.51 z-score
14,GGTGGGAGGAAGTGTTTTCT,4.07 z-score
15,CAAAAAGGGAAGTGGACGCT,6.7 z-score
16,TGAAGAAGGAAGTGAAATTA,4.07 z-score
17,CGGGAGAGGAAGTGACCCAT,4.4 z-score
18,AAAAAGGGGAAGTCAGGGAG,7.66 z-score
19,TTTAAAGGGAAATACTGTGG,1.36 z-score
20,GGAAAAAGGAAGTGCTTGCT,5.77 z-score

row,Sequence,binding signal
1,GCCAGGAGGAAGTGGAAATG,4.22 z-score
2,GAAAACAGGAAGTCCGATAG,7.15 z-score
3,AATTAAAGGAAGTGATTCTA,4.22 z-score
4,AGAATAGGGAAGTGACTTAA,7.27 z-score
5,TAGATGAGGAAGTAGCTCAA,5.68 z-score
6,GAAAGGAGGATGTACTGTGA,1.39 z-score
7,AAAAACAGGAACTGGCTAGA,6.13 z-score
8,TAGATGAGGAAGTGAGCAGA,5.46 z-score
9,AGGATGAGGAACTGAAAATG,4.02 z-score
10,AAAAAAAGGAACTGATTCTT,5.43 z-score
11,ACAAAGAGGAAGTCCCCAAA,6.47 z-score
12,AGGATGAGGAACTGTTGATG,3.53 z-score
13,CAAAAAGGGAAGTGAGGTAC,6.58 z-score
14,TAATTGGGGAAGTGGTTTTG,6.12 z-score
15,TGATGGAGGAAGTGGTAAGA,3.63 z-score
16,GGTATGAGGAACTGGATTCC,4.19 z-score
17,GAAAGGAGGAAGTGGGAAGG,5.77 z-score
18,TGAAAGGGGAAGTGCTACAC,6.96 z-score
19,TGAAAGAGGAAGTGAACCAT,7.46 z-score
20,GCAATGAGGAACTGGAGTCT,3.85 z-score

# Target: PU.1 (endogenous, THP-1 nuclear extract) (UniProt P17947)
# Experiment: nuclear extract protein-binding microarray (nextPBM)
# Details: 20 mM HEPES pH 7.9, 100 mM NaCl, 1 mM DTT, 0.2 mg/mL BSA, 0.02% Triton X-100, 2% milk, 0.4 mg/mL salmon testes DNA; 1 h; temperature not stated; high values mean tight binding; double strand, one strand shown; sequences stand for … in GCCTAGCAC…GTGCTAGGTCTTGATTCGCTTGACGCTGCTG
row,Sequence,binding signal
1,TTTTTGAGGAAGTGATAAAA,6.54 z-score
2,AGAAAGGGGAAGTGCTACAC,7.29 z-score
3,GAAAACGGGAAGTCCCATAG,7.03 z-score
4,TGATAGAGGAAGTAGTAGCT,6.24 z-score
5,AAAAGAGGGAAGTGAAAATT,6.31 z-score
6,GAAATGAGGAAGTCTAACCT,7.11 z-score
7,GAAAACAGGAAGTCCCATCG,6.92 z-score
8,GGAGACAGGAAGTGACTTGT,3.96 z-score
9,AAAGTAAGGAAGTGATAAAG,2.69 z-score
10,GGAAGGCAGAAGTACTGTGA,1.69 z-score
11,GCAGGGAGGAAGTGGGGAAG,3.54 z-score
12,GAAGAGAGGAAGTCAAATTG,4.11 z-score
13,AAAAACAGGAACTGTCTTTC,6.56 z-score
14,GGTGGGAGGAAGTGTTTTCT,3.53 z-score
15,CAAAAAGGGAAGTGGACGCT,6.81 z-score
16,TGAAGAAGGAAGTGAAATTA,4.1 z-score
17,CGGGAGAGGAAGTGACCCAT,4.61 z-score
18,AAAAAGGGGAAGTCAGGGAG,7.18 z-score
19,TTTAAAGGGAAATACTGTGG,0.905 z-score
20,GGAAAAAGGAAGTGCTTGCT,6.07 z-score

row,Sequence,binding signal
1,GCCAGGAGGAAGTGGAAATG,4.53 z-score
2,GAAAACAGGAAGTCCGATAG,6.81 z-score
3,AATTAAAGGAAGTGATTCTA,3.89 z-score
4,AGAATAGGGAAGTGACTTAA,7.16 z-score
5,TAGATGAGGAAGTAGCTCAA,6.49 z-score
6,GAAAGGAGGATGTACTGTGA,1.49 z-score
7,AAAAACAGGAACTGGCTAGA,6.57 z-score
8,TAGATGAGGAAGTGAGCAGA,6.15 z-score
9,AGGATGAGGAACTGAAAATG,4.14 z-score
10,AAAAAAAGGAACTGATTCTT,5 z-score
11,ACAAAGAGGAAGTCCCCAAA,6.79 z-score
12,AGGATGAGGAACTGTTGATG,3.15 z-score
13,CAAAAAGGGAAGTGAGGTAC,6.73 z-score
14,TAATTGGGGAAGTGGTTTTG,6.29 z-score
15,TGATGGAGGAAGTGGTAAGA,3.26 z-score
16,GGTATGAGGAACTGGATTCC,4.17 z-score
17,GAAAGGAGGAAGTGGGAAGG,6.39 z-score
18,TGAAAGGGGAAGTGCTACAC,6.91 z-score
19,TGAAAGAGGAAGTGAACCAT,7.51 z-score
20,GCAATGAGGAACTGGAGTCT,4.15 z-score
